Measured values: PubChem BioAssay AID1508623 (National Center for Advancing Translational Sciences (NCATS), 2021)
Screen size: about 48,000 compounds; about 450 (0.94%) were called active. About 19% were inconclusive and are not listed. Calls come from the whole dose curve; as a rule, active = well fitted inhibition curve with a large enough effect; inconclusive = small, poorly fitted or top-dose-only effect; inactive = no such curve, though single readings can be large or run the other way. The list shows a part of the results.

Experiment: Primary qHTS for Identification of Small Molecule Inhibitors of Huntingtin Promoter Activity; note: nearly all actives have a fitted effect of over 50% in size
Conditions: HEK293 HTT promoter firefly luciferase reporter (activity 0% = vehicle and -100% = no light), 24 h; series mostly up to 57.5 µM; activity change, negative = inhibition: at the top concentration
Procedure, shortened: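 Firefly luciferase signal from promoter-reporter HEK293 cells was scaled between vehicle (0%) and zero RLU (-100%). Compounds were tested at final concentrations of up to 57.5 uM over 24 h at 37 degrees C. PTC124 at 50 uM final served as control inhibitor.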
Potency is the fitted concentration of half-maximal effect.

| SMILES | activity change, negative = inhibition | Potency |
| --- | --- | --- |
| COc1ccccc1CNc1ncnc2onc(-c3ccc(F)cc3)c12 | inactive: -18% | – |
| CC(=O)N1CCCc2cc(S(=O)(=O)N3CCC(C(=O)Nc4c(C)cccc4C)CC3)ccc21 | – | active: 20 µM |
| CCc1nnc(SCc2cccc(Cl)c2)c2cc3sccc3n12 | inactive: -25.1% | – |
| Cc1cc(C)c(NC(=O)CSc2nc3nccnc3c(=O)n2CCc2c[nH]c3ccccc23)c(C)c1 | inactive: -11.5% | – |
| COc1ccc2c(CNC3CCCCCC3)c(C(=O)O)n(Cc3ccc(C)cc3)c2c1 | inactive: -31.7% | – |
| COc1ccc(CNC(=O)CN2C(=O)COc3ccc(S(=O)(=O)N4CCCCC4)cc32)cc1 | inactive: -3.18% | – |
| Cc1cc(F)ccc1NC(=O)Cn1nc(N2CCN(c3ccccc3)CC2)ccc1=O | inactive: -18% | – |
| Cc1ccc(Cn2c(C)c3cnn(CC(=O)O)c(=O)c3c2C)cc1 | inactive: -18.2% | – |
| O=C(Cn1cc(SCc2ccc(F)cc2)c2ccccc21)N1CCCCC1 | inactive: 2.25% | – |
| CCOc1cc(S(=O)(=O)NCCc2c(C)[nH]c3ccc(C)cc23)ccc1F | inactive: -4.62% | – |
| COc1ccc2c(c1)c(CC(=O)Nc1cc(C)cc(C)c1)c(C)n2C(=O)c1ccc(Cl)cc1 | inactive: 0.224% | – |
| O=C(NCc1ccccc1)c1cnc2sc(N3CCCC3)nn2c1=O | inactive: 6.45% | – |
| COc1ccc(C)cc1NC(=O)c1sc2nc(-c3ccc(F)cc3)cn2c1C | inactive: 0.743% | – |
| O=C1CCCC2=C1C(c1[nH]ncc1Cl)N=C(Nc1nc3ccccc3o1)N2 (configuration not stated) | inactive: 2.73% | – |
| Cc1cc(C)c2oc(C(=O)Nc3ccc(S(=O)(=O)Nc4ncccn4)cc3)cc(=O)c2c1 | inactive: 6.78% | – |
| O=C(CCCn1ncn2c(cc3occc32)c1=O)NCc1ccccc1F | inactive: -9.32% | – |
| Cc1cc2c(cc1S(=O)(=O)C(C)CC(=O)NC1CCC(C)CC1)OCC(=O)N2 (configuration not stated) | inactive: 0% | – |
| O=C(Nc1ccccc1C(F)(F)F)c1cc2nc(-c3ccccc3)cc(-c3ccccc3)n2n1 | inactive: -3.73% | – |
| COc1ccccc1NC(=O)c1sc(-c2ccc(Cl)cc2)cc1N | inactive: -11.9% | – |
| CCc1ccc2c(c1)NC(c1ccc(F)cc1)=NC(c1ccncc1)=N2 | inactive: -9.34% | – |
| COCCc1nn2c(=O)cc(COC(=O)c3ccccc3C)nc2s1 | inactive: 37.9% | – |
| Cc1ccc(C)c(N2CCN(C(=O)c3ccc4c(=O)n(CCc5ccccc5)c(=O)[nH]c4c3)CC2)c1 | inactive: -2.67% | – |
| O=C(Nc1cc(-c2ccc(Cl)cc2)no1)c1ccc(F)cc1 | inactive: 15% | – |
| CCCSCCCNC(=O)CN1C(=O)COc2ccc(S(=O)(=O)N3CCCC3)cc21 | inactive: -14% | – |
| COc1cc(NC(=O)C2=CC(c3ccco3)=NS(=O)(=O)N2C)cc(OC)c1OC | inactive: -20.3% | – |
| CCCCn1c(=O)c2oc3ccccc3c2n(Cc2ccccc2C)c1=O | inactive: 4.34% | – |
| O=C(COc1ccc(F)cc1)Nc1ccccc1C(=O)OCc1cc(=O)n2ccsc2n1 | inactive: -1.22% | – |
